# Results from the supplement of paper PMC8728848.
# The other results are listed elsewhere or left out.
# B1: Gal 3C (Homo sapiens), P17931 (protein)
# chain: YGAPAGPLIVPYNLPLPGGVVPRMLITILGTVKPNANRIALDFQRGNDVAFHFNPRFNENNRRVIVCNTKLDNNWGREERQSVFPFESGKPFKIQVLVEPDHFKVAVNDAHLLQYNHRVKKLNEISKLGISGDIDLTSASYTMI
# Key:
# Assay in all cases: glycan array binding signal (z-score within array); higher = stronger binding
# Conditions in all cases: glycan notation: IUPAC condensed, linker removed
# [1] = target: Fuc(a1-2)Gal(b1-4)GlcNAc(b1-3)Gal(b1-4)GlcNAc(b1-2)Man(a1-3)[Fuc(a1-2)Gal(b1-4)GlcNAc(b1-3)Gal(b1-4)GlcNAc(b1-2)Man(a1-6)]Man(b1-4)GlcNAc(b1-4)GlcNAc
# Outline: (§1)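 Negative Z-scores can be read as non-binding. The Z-score is calculated within each array and then averaged across arrays of one protein sequence at different concentrations or buffers and across linkers. Arrays, 3228 in all, were curated from the Consortium for Functional Glycomics database and kept only where the protein sequence was available.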
# [2] = target: Fuc(a1-2)Gal(b1-4)GlcNAc(b1-3)Gal(b1-4)GlcNAc(b1-3)Gal(b1-4)GlcNAc
# Outline: as §1
# [3] = target: Fuc(a1-2)Gal(b1-4)GlcNAc(b1-3)GalNAc
# Outline: as §1
# [4] = target: Fuc(a1-2)Gal(b1-4)GlcNAc(b1-3)[Fuc(a1-2)Gal(b1-4)GlcNAc(b1-6)]GalNAc
# Outline: as §1
# [5] = target: Fuc(a1-2)Gal(b1-4)GlcNAc(b1-3)[Fuc(a1-3)[Gal(b1-4)]GlcNAc(b1-6)]Gal(b1-4)Glc
# Outline: as §1
# [6] = target: Fuc(a1-2)Gal(b1-4)GlcNAc(b1-6)GalNAc
# Outline: as §1
# [7] = target: Fuc(a1-2)Gal(b1-4)GlcNAc6S
# Outline: as §1
# [8] = target: Fuc(a1-2)Gal(b1-4)[Fuc(a1-3)]GlcNAc
# Outline: as §1
# [9] = target: Fuc(a1-2)Gal(b1-4)[Fuc(a1-3)]GlcNAc(b1-2)Man(a1-3)[Fuc(a1-2)Gal(b1-4)[Fuc(a1-3)]GlcNAc(b1-2)Man(a1-6)]Man(b1-4)GlcNAc(b1-4)[Fuc(a1-6)]GlcNAc
# Outline: as §1
# [10] = target: Fuc(a1-2)Gal(b1-4)[Fuc(a1-3)]GlcNAc(b1-2)[Fuc(a1-2)Gal(b1-4)[Fuc(a1-3)]GlcNAc(b1-4)]Man(a1-3)[Fuc(a1-2)Gal(b1-4)[Fuc(a1-3)]GlcNAc(b1-2)Man(a1-6)]Man(b1-4)GlcNAc(b1-4)GlcNAc
# Outline: as §1
# [11] = target: Fuc(a1-2)Gal(b1-4)[Fuc(a1-3)]GlcNAc(b1-3)Gal(b1-4)[Fuc(a1-3)]GlcNAc
# Outline: as §1
# [12] = target: Fuc(a1-2)Gal(b1-4)[Fuc(a1-3)]GlcNAc(b1-3)Gal(b1-4)[Fuc(a1-3)]GlcNAc(b1-3)Gal(b1-4)[Fuc(a1-3)]GlcNAc
# Outline: as §1
# [13] = target: Fuc(a1-2)Gal(b1-4)[Fuc(a1-3)]GlcNAc(b1-3)GalNAc
# Outline: as §1
# [14] = target: Fuc(a1-2)Gal(b1-4)[Fuc(a1-3)]GlcNAc(b1-3)[Neu5Ac(a2-6)Gal(b1-4)GlcNAc(b1-6)]Gal(b1-4)Glc
# Outline: as §1
# [15] = target: Fuc(a1-2)Gal3S(b1-4)GlcNAc
# Outline: as §1
# [16] = target: Fuc(a1-2)Gal6S(b1-3)GlcNAc
# Outline: as §1
# [17] = target: Fuc(a1-2)Gal6S(b1-3)GlcNAc6S
# Outline: as §1
# Fuc(a1-2)Gal6S(b1-4)Glc = target: Fuc(a1-2)Gal6S(b1-4)Glc
# Outline: as §1
# [18] = target: Fuc(a1-2)Gal6S(b1-4)Glc6S
# Outline: as §1
# Fuc(a1-2)[Gal(a1-3)]Gal = target: Fuc(a1-2)[Gal(a1-3)]Gal
# Outline: as §1
# [19] = target: Fuc(a1-2)[Gal(a1-3)]Gal(b1-3)GalNAc
# Outline: as §1
# [20] = target: Fuc(a1-2)[Gal(a1-3)]Gal(b1-3)GalNAc(b1-3)Gal(a1-4)Gal(b1-4)Glc
# Outline: as §1
# [21] = target: Fuc(a1-2)[Gal(a1-3)]Gal(b1-3)GlcNAc
# Outline: as §1
# [22] = target: Fuc(a1-2)[Gal(a1-3)]Gal(b1-3)GlcNAc(b1-2)Man(a1-3)[Fuc(a1-2)[Gal(a1-3)]Gal(b1-3)GlcNAc(b1-2)Man(a1-6)]Man(b1-4)GlcNAc(b1-4)GlcNAc
# Outline: as §1
# [23] = target: Fuc(a1-2)[Gal(a1-3)]Gal(b1-3)GlcNAc(b1-2)Man(a1-3)[Fuc(a1-2)[Gal(a1-3)]Gal(b1-3)GlcNAc(b1-2)Man(a1-6)]Man(b1-4)GlcNAc(b1-4)[Fuc(a1-6)]GlcNAc
# Outline: as §1
# [24] = target: Fuc(a1-2)[Gal(a1-3)]Gal(b1-3)GlcNAc(b1-3)GalNAc
# Outline: as §1
# [25] = target: Fuc(a1-2)[Gal(a1-3)]Gal(b1-3)GlcNAc(b1-6)GalNAc
# Outline: as §1
# [26] = target: Fuc(a1-2)[Gal(a1-3)]Gal(b1-4)Glc
# Outline: as §1
# [27] = target: Fuc(a1-2)[Gal(a1-3)]Gal(b1-4)GlcNAc
# Outline: as §1
# [28] = target: Fuc(a1-2)[Gal(a1-3)]Gal(b1-4)GlcNAc(b1-2)Man
# Outline: as §1
binder,measurement,setting,value
B1,glycan array binding signal (z-score),[1],1.68
same,glycan array binding signal (z-score),[2],2.05
same,glycan array binding signal (z-score),[3],-0.242
same,glycan array binding signal (z-score),[4],-0.342
same,glycan array binding signal (z-score),[5],-0.284
same,glycan array binding signal (z-score),[6],-0.295
same,glycan array binding signal (z-score),[7],-0.313
same,glycan array binding signal (z-score),[8],-0.318
same,glycan array binding signal (z-score),[9],-0.215
same,glycan array binding signal (z-score),[10],-0.232
same,glycan array binding signal (z-score),[11],-0.198
same,glycan array binding signal (z-score),[12],-0.175
same,glycan array binding signal (z-score),[13],-0.183
same,glycan array binding signal (z-score),[14],-0.296
same,glycan array binding signal (z-score),[15],-0.307
same,glycan array binding signal (z-score),[16],-0.329
same,glycan array binding signal (z-score),[17],-0.167
same,glycan array binding signal (z-score),Fuc(a1-2)Gal6S(b1-4)Glc,-0.193
same,glycan array binding signal (z-score),[18],-0.287
same,glycan array binding signal (z-score),Fuc(a1-2)[Gal(a1-3)]Gal,-0.224
same,glycan array binding signal (z-score),[19],-0.218
same,glycan array binding signal (z-score),[20],-0.305
same,glycan array binding signal (z-score),[21],0.604
same,glycan array binding signal (z-score),[22],0.151
same,glycan array binding signal (z-score),[23],-0.222
same,glycan array binding signal (z-score),[24],-0.161
same,glycan array binding signal (z-score),[25],-0.263
same,glycan array binding signal (z-score),[26],-0.106
same,glycan array binding signal (z-score),[27],2.41
same,glycan array binding signal (z-score),[28],0.736
